Out of some 340,000 compounds screened, about 12,000 (3.5%) were called active. The shares of active, inactive and inconclusive entries below differ from those in the screen. Calls follow the shape of the dose curve; as a rule, active = well fitted inhibition curve with a large enough effect; inconclusive = small, poorly fitted or top-dose-only effect, or another doubt; inactive = no such curve, though single readings can be large or run the other way. No potency is given beside an inconclusive call; the fits are too rough.
Test: qHTS Assay for Inhibitors of Hepatitis C Virus (HCV)
Settings: Huh7.5.1 HCVcc-Cre (HCVcc is cell-culture hepatitis C virus) infection, luciferase reporter, 44 h; series mostly up to 41.8 µM
How it was run: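 Infectious HCV cell culture screen: compound-treated cells (1,000/well, pre-plated 4 h) are infected with HCVcc-Cre at roughly 0.5 moi and grown 44 h. Infection is quantified by luciferase signal after 15 min substrate incubation at room temperature.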
Potency is read from the fitted curve at half-maximal effect; tags tell the direction and shape of the fitted curve.

SMILES	Potency
COc1cc2c3nnc(-c4ccc(F)cc4)c-3cn(Cc3ccc(F)cc3)c2cc1OC	inactive
O=C1C=C(c2c(O)ccc3ccccc23)c2ccccc2C1=O	inconclusive [inhibitor, single point]
Cc1cccc(NC2=NC(C)(C)N=C(N)N2)c1	inconclusive [inhibitor, single point]
Cc1cc(NC(=O)Nc2ccc(F)c(Cl)c2)no1	inconclusive [inhibitor, partial curve]
CCOC(=O)c1c(S(=O)(=O)Nc2ccccc2OCC)c(C)n(C)c1C	inactive
COc1ccccc1N1CCN(S(=O)(=O)/C=C/c2ccccc2)CC1	inconclusive [inhibitor, single point]
CN(CC(=O)NCCc1ccc(F)cc1)CC(=O)Nc1ccc(F)c(F)c1F	inactive
CC(C)Cn1c(-c2cccs2)nc2nc3ccccc3nc21	inconclusive [inhibitor, partial curve]
CC1CCc2c(sc3nc(CSc4n[nH]c(N)n4)[nH]c(=O)c23)C1 (configuration not stated)	inactive
Cc1cccc(CSCc2ccc(C(=O)NC3CCCC3)o2)c1	inactive
Cc1ccccc1Cn1cc(NC(=O)COc2ccccc2)cn1	inconclusive [inhibitor, partial curve]
CCN1CCN(C(c2cccs2)C(C)NS(=O)(=O)c2ccc(Br)cc2)CC1 (configuration not stated)	inconclusive [inhibitor, full curve, poor fit]
Cc1cc(Nc2cccc(Cl)c2)nc(NCc2ccccc2)n1	inconclusive [inhibitor, single point]
CCOC(=O)c1c(NC(=S)NC(=O)c2cnn(CC)c2)sc2c1CCC(C)C2 (configuration not stated)	inconclusive [inhibitor, single point]
Cc1ccc(-c2cc(-c3cccc(F)c3)n[nH]2)c(O)c1	inconclusive [inhibitor, partial curve]
O=C(NCCS(=O)(=O)NC1CCCC1)c1ccccc1	inactive
Clc1ccc(C(CCN2CCCC2)Cc2ccccc2)cc1 (configuration not stated)	inconclusive [inhibitor, partial curve]
CCC(C(=O)Nc1nc(C)c(C)s1)c1ccccc1 (configuration not stated)	inconclusive [inhibitor, single point]
Cc1c(C)c2ccc(OCC(=O)Nc3ccc(N4CCC(C)CC4)cc3)cc2oc1=O	inconclusive [inhibitor, full curve, poor fit]
CCOc1cccc2cc(C(=O)OCC(=O)Nc3c(C)cccc3CC)c(=O)oc12	inactive
CC(Nc1ccc(Br)cc1)C(=O)Nc1cccc(S(=O)(=O)N2CCOCC2)c1 (configuration not stated)	inconclusive [inhibitor, single point]
COc1ccc(C2CC(=O)N3CN(c4ccccc4F)CSC3=C2C#N)cc1OC (configuration not stated)	inactive
CCN=C1S/C(=C\c2cc(OCC)c(O)cc2Br)C(=O)N1CC	inconclusive [inhibitor, full curve]
CCSc1cnn(-c2ccccc2)c(=O)c1SCC	inactive

SMILES	Potency
COc1cc(C(=O)N2CC(C)OC(C)C2)c([N+](=O)[O-])cc1OC (configuration not stated)	inactive
O=C(CSc1c(Cl)cccc1Cl)N1CCC(c2nc3ccccc3s2)CC1	inconclusive [inhibitor, single point]
C=CCc1ccccc1OCC(O)CN1CCN(C(=O)OCC)CC1 (configuration not stated)	inactive
O=C(CCN1CCN(c2ccccc2F)CC1)Nc1cccc(F)c1	inconclusive [inhibitor, single point]
Cc1cc(-c2ccc(C(C)C)c(S(=O)(=O)N3CCN(c4ccccc4)CC3)c2)on1	inconclusive [inhibitor, partial curve]
COc1ccc(-n2c(C)cc(/C=C3\SC(=S)N(Cc4ccco4)C3=O)c2C)cc1	inconclusive [inhibitor, single point]
CC(SCC(=O)Nc1ccccc1Br)c1nc2ccccc2c(=O)[nH]1 (configuration not stated)	inactive
COc1ccc(C2(c3ccc(OC)cc3)NC(=O)N(CC(=O)N(C)C)C2=O)cc1	inactive
Cc1ccc(C)c(OCc2cc(C(=O)N3CCOCC3)no2)c1	inconclusive [inhibitor, single point]
COC(=O)c1c(NC(C)=O)sc(Cc2ccccc2)c1C	inconclusive [inhibitor, partial curve, poor fit]
CCn1c(CNc2ccc(Cl)cc2)nnc1SCc1ccc(C)cc1	inconclusive [inhibitor, partial curve]
O=C(NCCOc1ccccc1F)C1CC(=O)N(Cc2ccccc2)C1 (configuration not stated)	inactive
COC(=O)C1=CN(c2ccc(Cl)cc2)C=C(C(=O)OC)C1c1ccc([N+](=O)[O-])cc1	inactive
C=CCN(CC=C)S(=O)(=O)c1ccc2nc(NC(=O)C(C)C)sc2c1	inconclusive [inhibitor, full curve]
Cc1noc(C)c1C(=O)N1CCN(C(=O)c2sc3cc(Cl)ccc3c2Cl)CC1	inconclusive [inhibitor, single point]
COC(=O)C1=C(C)NC(C)=C(C(=O)OC)C1C(=O)OCc1nnc(-c2ccccc2Cl)o1	inactive
COCCOC(=O)c1nccnc1C(=O)Nc1ccc(S(=O)(=O)N2CCOCC2)cc1	inactive
C/C(=N\NC(=O)c1cccc(S(=O)(=O)Nc2ccc(C)cc2C)c1)c1ccncc1	inconclusive [inhibitor, single point]
O=C1c2ccccc2C(=O)N1CCC1=CCCCC1	inactive
CC(C(=O)Nc1ccc(C#N)cc1)N(C)CC(=O)Nc1ccccc1Br (configuration not stated)	inconclusive [inhibitor, partial curve]
Cc1cc(=O)oc2cc(NC(=O)c3cc([N+](=O)[O-])ccc3N3CCOCC3)ccc12	active: 10 µM
Cc1ccc2cc(C#N)c(N3CCCC3)nc2c1C	inconclusive [inhibitor, partial curve]
CCOc1ccc(CCNC(=O)c2cccc(-n3cnnn3)c2)cc1OCC	inconclusive [inhibitor, single point]
CC(Cc1ccccc1Sc1ccc(O)cc1)N(C)C (configuration not stated)	inconclusive [inhibitor, partial curve]

SMILES	Potency
Cc1cc2ccccc2n1CCNC(=O)c1ccccc1	inactive
Cc1ccc(-c2nnc(-c3cccc(NC(=O)c4cccs4)c3)o2)cc1	inconclusive [inhibitor, partial curve, poor fit]
CCOC(=O)c1c(NC(=O)CSc2nnc(-c3ccncc3)n2Cc2ccco2)sc(C)c1C	inconclusive [inhibitor, full curve]
Cc1ccccc1Nc1nc(-c2ccccc2)c(C(=O)Nc2cccnc2)s1	inconclusive [inhibitor, single point]
COc1ccc(CNC(=O)c2csc(Cc3ccc(Cl)cc3)n2)cc1	inconclusive [inhibitor, single point]
CCOC(=O)N1CCN(C(=O)c2ccc3c(c2)NC(=O)/C(=C/c2ccccc2)S3)CC1	inconclusive [inhibitor, single point]
CC1CCCCN1CCNc1nc(=S)[nH]c2ccccc12 (configuration not stated)	active: 3.55 µM
O=[N+]([O-])c1ccccc1NC(=S)N/N=C/c1ccc(O)c(O)c1	inconclusive [inhibitor, partial curve]
O=C(CN1c2ccccc2Sc2ccccc21)N/N=C/c1ccc(Cl)cc1Cl	inconclusive [inhibitor, single point]
C=C(c1ccccc1Cl)[n+]1ccccc1	active: 4.47 µM
CC(=O)c1cccc(OCc2cc(C(=O)N(C)C(C)c3ccccn3)no2)c1 (configuration not stated)	inactive
COc1ccc(O)c(C(=O)c2cc(C#N)c(=O)n(-c3ccc(Cl)cc3)c2)c1	inconclusive [inhibitor, partial curve]
Cc1cc(NC(=O)CS(=O)(=O)c2cn(Cc3ccc(F)cc3)c3ccccc23)no1	inconclusive [inhibitor, single point]
CCC(=O)Nc1cc(C(=O)OCC(=O)c2ccc(Cl)cc2Cl)ccc1C	inactive
Cc1c(/C=N/NC(=O)c2sc3ccccc3c2Cl)cnn1C	inactive
O=C(NCC1CCN(c2ccc(S(=O)(=O)N3CCOCC3)cc2)CC1)c1cccc(Cl)c1	inconclusive [inhibitor, single point]
CC(=O)c1ccc2c(c1)C1C=CCC1C(c1cc3c(cc1Br)OCO3)N2 (configuration not stated)	inconclusive [inhibitor, partial curve]
CCc1cc2c(=O)n(Cc3ccco3)c(SCC(=O)N(C)C3CCS(=O)(=O)C3)nc2s1 (configuration not stated)	inconclusive [inhibitor, single point]
Cc1ccccc1OCC(O)CN1CCN(CC(O)COc2ccccc2C)CC1 (configuration not stated)	inconclusive [inhibitor, single point]
CCOc1ccc(NC(=S)N2CCC(NC(=O)c3ccco3)CC2)cc1	inactive
CN(C)c1ccc(/C=C(\C#N)C(=O)Nc2nc3c(s2)CCN(Cc2ccccc2)C3)cc1	inactive
Cc1nnc2n1N=CC=C(c1ccccc1)S2	inconclusive [inhibitor, single point]
Cc1ccc(C)c(NC(=O)c2c(Cl)nc3ccccn23)c1	inconclusive [inhibitor, full curve, poor fit]
NC(N)=N/N=C/c1ccc(N(c2ccccc2)c2ccccc2)cc1	inconclusive [inhibitor, single point]

Reference: PubChem BioAssay AID651820 (National Center for Advancing Translational Sciences (NCATS), 2012)
